The record followed here is article PMC12136788.

B1: chr15:80137503:80137604:+|CDS|ENSG00000086666|unk|FALSE|unique (ssRNA)
RNA: GGGAGUUCUACAGUCCGACGAUCCAAUUGCUCUUACAAUUACAAAGCCGAUGCUGCUGAGAAAAUCAGAAAAGAAAAUCCAGUAGUUGUUGGUGAAAAGAUCCAAAAGAUUUGAACUCCUGCUGGAAUACAAAAUUCUUGAGCCAACAGAGGAUUGAGCAUCA
B2: chr19:58433325:58435211:-|CDS|ENSG00000131849|control|control|control (ssRNA)
RNA: GGGAGUUCUACAGUCCGACGAUCGAAAGAUCUACACUUGUUCGGCACCAGAAAGUUCACACCAGAGAAAGGACUUAUGAGUGUAGCCAGUGUGGGAAACUCUUCAGCCAUCUUUGUAACCUUGCACAGCAUAAAAAGAUUCAUCAACAGAGGAUUGAGCAUCA
B3: ENSG00000021776:stop:overlap|stop_codon|ENSG00000021776|stop_codon|NA|stop_codon (ssRNA)
RNA: GGGAGUUCUACAGUCCGACGAUCCUGCACCGGCAGAAGCUAACACACCUCAGGAUGCCACAUCUGCCCCGGAAGAGACCAAGUAGCCAAACUGUAGUCCUUCUAAAGGAGGACAUGGCAGUCAAAAAGUCUGAGUAAAGCUGUCAACAGAGGAUUGAGCAUCA
B4: chr3:48693060:48693174:-|CDS|ENSG00000068745|unk|total|mutant (ssRNA)
RNA: GGGAGUUCUACAGUCCGACGAUCCCUUCCAGGUGUGGUAUCUGUGCGCUUUGAAGAAGAUGAAGACAGGAACUUGUGUCUAACCGCAUAUCCAUUGAAAGGGGACCAUGGAAUUGUGGACAUUGCCGAUAAUUCAGACUGUGACAACAGAGGAUUGAGCAUCA
B5: chr12:57028516:57028881:-|three_prime_utr|ENSG00000166866|control|control|control (ssRNA)
RNA: GGGAGUUCUACAGUCCGACGAUCUUAAACUACCCUUGAAGAGGACCCUUGUCCCAAACCCUUCUUGUUCUCUCCUCCAAAAGUAGCUUCCUCCAACCCGCAGCCUCUCUGCACACUAAUAAAACAUGUGGCUUGGAAAGGUUCCAACAGAGGAUUGAGCAUCA
B6: chr3:98797769:98798349:-|3pUTR|ENSG00000057019|msi1|total|mutant (ssRNA)
RNA: GGGAGUUCUACAGUCCGACGAUCUUGUUUUUGAUACCUCCUGGCAGCUUCCAUGUCACCACUUGUUCAUACCUGCCCAGAGCCCGUUUCCGACAUGGCAAAACCGAAAUCAUCUGUAAUUUAUCCGCUAACAAUGUAAAACCACAACAGAGGAUUGAGCAUCA
B7: chr6:30743938:30744518:-|CDS|ENSG00000137331|control|control|control (ssRNA)
RNA: GGGAGUUCUACAGUCCGACGAUCUGGGGAACGACCCGACUCCAGAGGCCUCGACCUGACCUGUCUCCUGUUUUGUCUCCCCUUAGGUCCGGCGCCAGCUGCCAGUCGAGGAACCGAACCCAGCCAAAAGGCUUCUCUUUCUGCCAACAGAGGAUUGAGCAUCA
B8: chr5:178210945:178211047:+|3pUTR|ENSG00000197451|unk|FALSE|unique (ssRNA)
RNA: GGGAGUUCUACAGUCCGACGAUCCUGCUGCCGCUCUGCAGCCUGGACCUGUGGACCCUGGUUGUAAAGAGUAAAUUGUAUCUUAGGAAACCAGUGUCACCUUUUUUUCACCUUUUAAUUUUAUAUUAUUUGCGUCAUACAUUUCAACAGAGGAUUGAGCAUCA
B9: chr10:68442948:68443070:-|CDS|ENSG00000138346|unk|total|mutant (ssRNA)
RNA: GGGAGUUCUACAGUCCGACGAUCCCCAAUUGUGAUGCUGCCCAAAACCGAAGAAGAAACCCAGCAUCUGAAGCAAACACACUCCGAAUAUUUCAGCCUUUGGUGUCUAAUGUUAACCCUGGAGUCACAAUCGAAGGAUAAUAACAACAGAGGAUUGAGCAUCA
B10: ENSG00000163399:stop:overlap|stop_codon|ENSG00000163399|stop_codon|NA|stop_codon (ssRNA)
RNA: GGGAGUUCUACAGUCCGACGAUCUCAGAAAACUCAUCAUCAGGCGACGCCCUGGCGGCUGGGUGGAGAAGGAAACCUACUAUUAGCCCCCCGUCCUGCACGCCGUGGAGCAUCAGGCCACACACUCUGCAUCCGACACCCACCCAACAGAGGAUUGAGCAUCA
B11: ENSG00000070961:be:win_101|CDS|ENSG00000070961|bound_else_gene|NA|bound_elsewhere_windowed (ssRNA)
RNA: GGGAGUUCUACAGUCCGACGAUCUGCGGGCUCUCAUGGAGCUCAGGUCCACAGAUGCAUUACGAAAAAUACAGGAAAGCUAUGGAGAUGUCUAUGGAAUUUGCACCAAAUUGAAAACAUCUCCCAAUGAAGGUUUAAGUGGAACAACAGAGGAUUGAGCAUCA
B12: chr6:73641827:73641929:-|CDS|ENSG00000119899|unk|FALSE|unique (ssRNA)
RNA: GGGAGUUCUACAGUCCGACGAUCGAGAAAAGAGCUGCUCUGUGAAGGUCUUAAAGGAUUGUUUUAUUCUUUUCUGAUUUUUGUAGGGUAAGAAGUACCAAUGGGAUGCAGAAACUCAAGGAUGGAUUCUCGGUUCCUUUUUUUCAACAGAGGAUUGAGCAUCA
B13: chr1:183142599:183142700:+|CDS|ENSG00000135862|msi1|FALSE|unique (ssRNA)
RNA: GGGAGUUCUACAGUCCGACGAUCAACGAGAUUGAAGGCACCCUAAACAAAGCCAAAGAUGAAAUGAAGGUCAGCGAUCUUGAUAGGAAAGUGUCUGACCUGGAGAAUGAAGCCAAGAAGCAGGAGGCUGCCAUCAUGGACUAUCAACAGAGGAUUGAGCAUCA
B14: ENSG00000164609:stop:overlap|stop_codon|ENSG00000164609|stop_codon|NA|stop_codon (ssRNA)
RNA: GGGAGUUCUACAGUCCGACGAUCAGGCAUAUAGAAUGAAACGUCAGAGGCCAGAUGACCCCAUGGCCUCUUUCCUUGGACAGUAGCAACUAGUCAGAAGACCAUCCAAGAUAGAUGCAGCUGAUACAUUCUUUUCAGCUUCUUCAACAGAGGAUUGAGCAUCA
B15: chrX:47571900:47572933:-|three_prime_utr|ENSG00000008056|control|control|control (ssRNA)
RNA: GGGAGUUCUACAGUCCGACGAUCAAACCUGACUCCUCCUGGCCCUAAAUCCGGUUCUCACAUGUGGAAUCCCCAAGUCCUUUUAGAACCCCACUCGUGGUCACUUCAGGAUCUACUUCUGUUUUAGAACCUCCACAUUCCUGACAACAGAGGAUUGAGCAUCA
B16: chr1:203741488:203741589:+|3pUTR|ENSG00000058668|msi1|total|mutant (ssRNA)
RNA: GGGAGUUCUACAGUCCGACGAUCGCCAGUUCAUGUCCCUGACUCUCACCUCCCAUCCGAUAAAUGAAGCCCACCCCCCUUUCCCGAGUGAUGAGAGUCAAGAAGAGGGGAUGUAUGAACGGCCAAAUUCCCAUGUGAGAGGAACAACAGAGGAUUGAGCAUCA
B17: chr7:80742675:80742739:-|3pUTR|ENSG00000075223|msi1_unk|FALSE|overlapping (ssRNA)
RNA: GGGAGUUCUACAGUCCGACGAUCGUAGCUUGACAAUUCAGUGACUUAAUAUCUAUUCCAUUUGUAUUGUACAUAAAAUUUUCUAGAAAUACACUUUUUUCCAAAGUGUAAGUUUGUGAAUAGAUUUUAGCAUGAUGAAACUGUCAACAGAGGAUUGAGCAUCA
B18: ENSG00000198589:be:win_651|CDS|ENSG00000198589|bound_else_gene|NA|bound_elsewhere_windowed (ssRNA)
RNA: GGGAGUUCUACAGUCCGACGAUCUGCAUUACCUCCUAUAGCCAAAUGGCCAUACCAGAAUGGUUUUACAUUUCAUACAUGGCUUAGAAUGGAUCCUGUAAAUAACAUCAAUGUAGAUAAGGAUAAACCAUAUUUGUAUUGUUUCAACAGAGGAUUGAGCAUCA
B19: chr2:9584341:9584442:-|3pUTR|ENSG00000134308|msi1_unk|FALSE|overlapping (ssRNA)
RNA: GGGAGUUCUACAGUCCGACGAUCUUUCCAUGCAGAUUUGUGCACAUGUGAGAGGGUGUCCAGUUUGUCUAGUGAUUGUUAUUUAGAGAGUUGGACCACUAUUGUGUGUUGCUAAUCAUUGACUGUAGUCCCAAAAAAGCCUUGCAACAGAGGAUUGAGCAUCA
B20: chr22:20819776:20819877:-|CDS|ENSG00000241973|unk|total|mutant (ssRNA)
RNA: GGGAGUUCUACAGUCCGACGAUCUGUAACGUUUUCACUUGAUCUUCCCGAAUACCUUUGCAAGUAUGCUAUCCCAUGCCUGACCGGAAUCUCGCGAGCAUUUGGGCGUUACAGCAACAUGGAAGAGUCUCUCCUCUCAAAGCUCAACAGAGGAUUGAGCAUCA
B21: chr14:57493492:57493715:-|CDS|ENSG00000100557|control|control|control (ssRNA)
RNA: GGGAGUUCUACAGUCCGACGAUCGAGUCACUCUAAGACUCACCUUAGGGUGAUCAAAGUAGCACCUUUGCAAAACAAAGAGGUAGAGACUCCCUCGGCUGGCCGUGUGGACUUUGCAUUCAAUCAGAAUUUGGAAGAAAAGACCAACAGAGGAUUGAGCAUCA
B22: chrX:13662881:13662996:+|CDS|ENSG00000176896|unk|FALSE|unique (ssRNA)
RNA: GGGAGUUCUACAGUCCGACGAUCUCGAAUUCUCUGUCUUCCCAAGACGUUGCAAAACUCAGUGAAAUGAUUGUGCCUGAAAAUAGAGCCAUUCAAUUGAAACCUAAGGAAGAGCAUUUUGGGGAUGGUGACCCUGAAUCCACUCAACAGAGGAUUGAGCAUCA

The other results are listed elsewhere or left out.

The experiment has as its target MSI1 full-length (mouse, UniProt Q61474 1-362). Description: nsRBNS (natural sequence RNA bind-n-seq); RBNS binding buffer (assumed for nsRBNS): 25 mM Tris pH 7.5, 150 mM KCl, 3 mM MgCl2, 0.01% Triton X-100, 500 ug/ml BSA, 20 U/ml SUPERase-In, 4 C; UNK is unkempt and MSI1 is Musashi-1; names of the RNAs are library labels; protein concentration not given here; high values mean tight binding.
UniProt Q61474, sequence (Q61474 whole entry): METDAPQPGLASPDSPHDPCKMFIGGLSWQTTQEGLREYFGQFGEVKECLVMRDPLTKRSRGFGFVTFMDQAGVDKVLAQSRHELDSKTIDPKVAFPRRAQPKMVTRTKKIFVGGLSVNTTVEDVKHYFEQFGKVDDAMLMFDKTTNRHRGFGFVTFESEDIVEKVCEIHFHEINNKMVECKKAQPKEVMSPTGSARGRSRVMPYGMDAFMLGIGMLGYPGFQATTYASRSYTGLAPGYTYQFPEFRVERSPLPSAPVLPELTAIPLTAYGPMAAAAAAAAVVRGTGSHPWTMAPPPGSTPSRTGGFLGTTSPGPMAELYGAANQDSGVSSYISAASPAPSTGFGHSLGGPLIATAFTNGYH
As for B1, the binding signal was 0.345 enrichment R.

As for B2, the binding signal worked out at 0.455 enrichment R.

Molecule B3 had a binding signal of 0.385 enrichment R.

In turn, B4 had a binding signal of 0.467 enrichment R.

Regarding B5, the binding signal is 0.675 enrichment R.

For B6, the binding signal amounted to 0.808 enrichment R.

As to B7, the binding signal is 0.66 enrichment R.

In turn, B8 had a binding signal of 2.32 enrichment R.

B9 registered a binding signal of 0.373 enrichment R.

For B10, the binding signal worked out at 0.528 enrichment R.

For the molecule B11, the binding signal was 0.327 enrichment R.

As to B12, the binding signal was determined as 0.359 enrichment R.

On to B13, for which the binding signal was determined as 0.53 enrichment R.

On to B14, for which the binding signal amounted to 0.347 enrichment R.

Molecule B15 yielded a binding signal of 0.863 enrichment R.

For B16, the binding signal came out at 0.579 enrichment R.

As to B17, the binding signal amounted to 6.36 enrichment R.

With B18, the binding signal was found to be 1.07 enrichment R.

For B19, the binding signal was found to be 0.576 enrichment R.

B20 came in with a binding signal of 0.3 enrichment R.

B21 yielded a binding signal of 0.37 enrichment R.

B22 registered a binding signal of 0.249 enrichment R.
